Experimental data published in patent US11618753B2 (priority 2018, dated 2023).

Test system: MLKL phosphorylation, HT29-L23 human colorectal adenocarcinoma cells
Experiment: cells
Details: read-out: pMLKL HCS Cell Assay (IC50, uM)

Compound | IC50 [µM]
Nc1ncnn2c(-c3cc(C(=O)N[C@@H]4CN(C(=O)C5(F)CC5)C[C@@H]4F)c(F)cc3F)cc(C(F)(F)F)c12 [Example 779, 5-[4-amino-5-(trifluoromethyl)pyrrolo[2,1-f][1,2,4]triazin-7-yl]-2,4-difluoro-N-[(3R,4S)-4-fluoro-1-(1-fluorocyclopropanecarbonyl)pyrrolidin-3-yl]benzamide] | 0.048
CCC(O)(C(=O)N1C[C@H](F)[C@H](NC(=O)c2cc(-c3cc(C(F)(F)F)c4c(N)ncnn34)c(F)cc2F)C1)C(F)(F)F (stereo partly drawn) [Example 781, 5-[4-amino-5-(trifluoromethyl)pyrrolo[2,1-f][1,2,4]triazin-7-yl]-2,4-difluoro-N-[(3R,4S)-4-fluoro-1-[2-hydroxy-2-(trifluoromethyl)butanoyl]pyrrolidin-3-yl]benzamide] | 0.026
CC(C)(F)C(=O)N1C[C@H](F)[C@H](NC(=O)c2cc(-c3cc(C(F)(F)F)c4c(N)ncnn34)c(F)cc2F)C1 [Example 782, 5-[4-amino-5-(trifluoromethyl)pyrrolo[2,1-f][1,2,4]triazin-7-yl]-2,4-difluoro-N-[(3R,4S)-4-fluoro-1-(2-fluoro-2-methylpropanoyl)pyrrolidin-3-yl]benzamide] | 0.023
Nc1ncnn2c(-c3cc(C(=O)N[C@@H]4CN(C(=O)CC(C(F)(F)F)C(F)(F)F)C[C@@H]4F)c(F)cc3F)cc(C(F)(F)F)c12 [Example 783, 5-[4-amino-5-(trifluoromethyl)pyrrolo[2,1-f][1,2,4]triazin-7-yl]-2,4-difluoro-N-[(3R,4S)-4-fluoro-1-[4,4,4-trifluoro-3-(trifluoromethyl)butanoyl]pyrrolidin-3-yl]benzamide] | 0.0087
Nc1ncnn2c(-c3cc(C(=O)N[C@@H]4CN(C(=O)CC(O)(C(F)(F)F)C(F)(F)F)C[C@@H]4F)c(F)cc3F)cc(C(F)(F)F)c12 [Example 784, 5-[4-amino-5-(trifluoromethyl)pyrrolo[2,1-f][1,2,4]triazin-7-yl]-2,4-difluoro-N-[(3R,4S)-4-fluoro-1-[4,4,4-trifluoro-3-hydroxy-3-(trifluoromethyl)butanoyl]pyrrolidin-3-yl]benzamide] | 0.0026
CC(CC(=O)N1C[C@H](F)[C@H](NC(=O)c2cc(-c3cc(C(F)(F)F)c4c(N)ncnn34)c(F)cc2F)C1)C(F)(F)F (stereo partly drawn) [Example 785, 5-[4-amino-5-(trifluoromethyl)pyrrolo[2,1-f][1,2,4]triazin-7-yl]-2,4-difluoro-N-[(3R,4S)-4-fluoro-1-(4,4,4-trifluoro-3-methylbutanoyl)pyrrolidin-3-yl]benzamide] | 0.0062
CC(C(=O)N1C[C@H](F)[C@H](NC(=O)c2cc(-c3cc(C(F)(F)F)c4c(N)ncnn34)c(F)cc2F)C1)C(F)(F)F (stereo partly drawn) [Example 787, 5-[4-amino-5-(trifluoromethyl)pyrrolo[2,1-f][1,2,4]triazin-7-yl]-2,4-difluoro-N-[(3R,4S)-4-fluoro-1-(3,3,3-trifluoro-2-methylpropanoyl)pyrrolidin-3-yl]benzamide] | 0.012
Nc1ncnn2c(-c3cc(C(=O)N[C@@H]4CN(C(=O)C5CC5(F)F)C[C@@H]4F)c(F)cc3F)cc(C(F)(F)F)c12 (stereo partly drawn) [Example 788, 5-[4-amino-5-(trifluoromethyl)pyrrolo[2,1-f][1,2,4]triazin-7-yl]-N-[(3R,4S)-1-(2,2-difluorocyclopropanecarbonyl)-4-fluoropyrrolidin-3-yl]-2,4-difluorobenzamide] | 0.0083
Nc1ncnn2c(-c3cc(C(=O)N[C@@H]4CN(C(=O)C5CCC(F)(F)C5)C[C@@H]4F)c(F)cc3F)cc(C(F)(F)F)c12 (stereo partly drawn) [Example 789, 5-[4-amino-5-(trifluoromethyl)pyrrolo[2,1-f][1,2,4]triazin-7-yl]-N-[(3R,4S)-1-(3,3-difluorocyclopentanecarbonyl)-4-fluoropyrrolidin-3-yl]-2,4-difluorobenzamide] | 0.029
Cc1cc(F)c(-c2cc(C(F)(F)F)c3c(N)ncnn23)cc1C(=O)N[C@@H]1CN(C(=O)C2CCC2)C[C@@H]1F [Example 791, 5-[4-amino-5-(trifluoromethyl)pyrrolo[2,1-f][1,2,4]triazin-7-yl]-N-[(3R,4S)-1-cyclobutanecarbonyl-4-fluoropyrrolidin-3-yl]-4-fluoro-2-methylbenzamide] | 0.004
Cc1cc(F)c(-c2cc(C(F)(F)F)c3c(N)ncnn23)cc1C(=O)N[C@@H]1CN(C(=O)c2ccc(F)cc2)C[C@@H]1F [Example 792, 5-[4-amino-5-(trifluoromethyl)pyrrolo[2,1-f][1,2,4]triazin-7-yl]-4-fluoro-N-[(3R,4S)-4-fluoro-1-(4-fluorobenzoyl)pyrrolidin-3-yl]-2-methylbenzamide] | 0.0062
Cc1cc(F)c(-c2cc(C(F)(F)F)c3c(N)ncnn23)cc1C(=O)N[C@@H]1CN(C(=O)C(C)C)C[C@@H]1F [Example 793, 5-[4-amino-5-(trifluoromethyl)pyrrolo[2,1-f][1,2,4]triazin-7-yl]-4-fluoro-N-[(3R,4S)-4-fluoro-1-(2-methylpropanoyl)pyrrolidin-3-yl]-2-methylbenzamide] | 0.0044
Cc1cc(F)c(-c2cc(C(F)(F)F)c3c(N)ncnn23)cc1C(=O)N[C@@H]1CN(C(=O)C(C)(C)C)C[C@@H]1F [Example 795, 5-[4-amino-5-(trifluoromethyl)pyrrolo[2,1-f][1,2,4]triazin-7-yl]-N-[(3R,4S)-1-(2,2-dimethylpropanoyl)-4-fluoropyrrolidin-3-yl]-4-fluoro-2-methylbenzamide] | 0.0037
Cc1cc(F)c(-c2cc(C(F)(F)F)c3c(N)ncnn23)cc1C(=O)N[C@@H]1CN(C(=O)CC(F)(F)F)C[C@@H]1F [Example 796, 5-[4-amino-5-(trifluoromethyl)pyrrolo[2,1-f][1,2,4]triazin-7-yl]-4-fluoro-N-[(3R,4S)-4-fluoro-1-(3,3,3-trifluoropropanoyl)pyrrolidin-3-yl]-2-methylbenzamide] | 0.0035
Cc1cc(F)c(-c2cc(C(F)(F)F)c3c(N)ncnn23)cc1C(=O)N[C@@H]1CN(C(=O)C2CCCC2)C[C@@H]1F [Example 797, 5-[4-amino-5-(trifluoromethyl)pyrrolo[2,1-f][1,2,4]triazin-7-yl]-N-[(3R,4S)-1-cyclopentanecarbonyl-4-fluoropyrrolidin-3-yl]-4-fluoro-2-methylbenzamide] | 0.0022
Cc1cc(F)c(-c2cc(C(F)(F)F)c3c(N)ncnn23)cc1C(=O)N[C@@H]1CN(C(=O)C2(C(F)(F)F)CCC2)C[C@@H]1F [Example 798, 5-[4-amino-5-(trifluoromethyl)pyrrolo[2,1-f][1,2,4]triazin-7-yl]-4-fluoro-N-[(3R,4S)-4-fluoro-1-[1-(trifluoromethyl)cyclobutanecarbonyl]pyrrolidin-3-yl]-2-methylbenzamide] | 0.0047
Cc1cc(F)c(-c2cc(C(F)(F)F)c3c(N)ncnn23)cc1C(=O)N[C@@H]1CN(C(=O)CC(C(F)(F)F)C(F)(F)F)C[C@@H]1F [Example 799, 5-[4-amino-5-(trifluoromethyl)pyrrolo[2,1-f][1,2,4]triazin-7-yl]-4-fluoro-N-[(3R,4S)-4-fluoro-1-[4,4,4-trifluoro-3-(trifluoromethyl)butanoyl]pyrrolidin-3-yl]-2-methylbenzamide] | 0.0048
Cc1cc(F)c(-c2cc(C(F)(F)F)c3c(N)ncnn23)cc1C(=O)N[C@@H]1CN(C(=O)C2CCC(F)(F)CC2)C[C@@H]1F [Example 800, 5-[4-amino-5-(trifluoromethyl)pyrrolo[2,1-f][1,2,4]triazin-7-yl]-N-[(3R,4S)-1-(4,4-difluorocyclohexanecarbonyl)-4-fluoropyrrolidin-3-yl]-4-fluoro-2-methylbenzamide] | 0.003
Cc1cc(F)c(-c2cc(C(F)(F)F)c3c(N)ncnn23)cc1C(=O)N[C@@H]1CN(C(=O)CC(C)C(F)(F)F)C[C@@H]1F (stereo partly drawn) [Example 801, 5-[4-amino-5-(trifluoromethyl)pyrrolo[2,1-f][1,2,4]triazin-7-yl]-4-fluoro-N-[(3R,4S)-4-fluoro-1-(4,4,4-trifluoro-3-methylbutanoyl)pyrrolidin-3-yl]-2-methylbenzamide] | 0.0018
Cc1cc(F)c(-c2cc(C(F)(F)F)c3c(N)ncnn23)cc1C(=O)N[C@@H]1CN(C(=O)CC(O)(C(F)(F)F)C(F)(F)F)C[C@@H]1F [Example 802, 5-[4-amino-5-(trifluoromethyl)pyrrolo[2,1-f][1,2,4]triazin-7-yl]-4-fluoro-N-[(3R,4S)-4-fluoro-1-[4,4,4-trifluoro-3-hydroxy-3-(trifluoromethyl)butanoyl]pyrrolidin-3-yl]-2-methylbenzamide] | 0.014
Cc1cc(F)c(-c2cc(C(F)(F)F)c3c(N)ncnn23)cc1C(=O)N[C@@H]1CN(C(=O)C2(O)CCCC2)C[C@@H]1F [Example 803, 5-[4-amino-5-(trifluoromethyl)pyrrolo[2,1-f][1,2,4]triazin-7-yl]-4-fluoro-N-[(3R,4S)-4-fluoro-1-(1-hydroxycyclopentanecarbonyl)pyrrolidin-3-yl]-2-methylbenzamide] | 0.0034
Cc1cc(F)c(-c2cc(C(F)(F)F)c3c(N)ncnn23)cc1C(=O)N[C@@H]1CN(C(=O)C2(O)CCC2)C[C@@H]1F [Example 804, 5-[4-amino-5-(trifluoromethyl)pyrrolo[2,1-f][1,2,4]triazin-7-yl]-4-fluoro-N-[(3R,4S)-4-fluoro-1-(1-hydroxycyclobutanecarbonyl)pyrrolidin-3-yl]-2-methylbenzamide] | 0.0049
Cc1cc(F)c(-c2cc(C(F)(F)F)c3c(N)ncnn23)cc1C(=O)N[C@@H]1CN(C(=O)C2(F)CCC2)C[C@@H]1F [Example 805, 5-[4-amino-5-(trifluoromethyl)pyrrolo[2,1-f][1,2,4]triazin-7-yl]-4-fluoro-N-[(3R,4S)-4-fluoro-1-(1-fluorocyclobutanecarbonyl)pyrrolidin-3-yl]-2-methylbenzamide] | 0.0024
Cc1cc(F)c(-c2cc(C(F)(F)F)c3c(N)ncnn23)cc1C(=O)N[C@@H]1CN(C(=O)C(C)(C)C(F)(F)F)C[C@@H]1F [Example 806, 5-[4-amino-5-(trifluoromethyl)pyrrolo[2,1-f][1,2,4]triazin-7-yl]-4-fluoro-N-[(3R,4S)-4-fluoro-1-(3,3,3-trifluoro-2,2-dimethylpropanoyl)pyrrolidin-3-yl]-2-methylbenzamide] | 0.0029
